Reference: ChEMBL document CHEMBL1201862, “PubChem BioAssay data set” (2004)
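In this assay, cells in 96-well plates receive the compound at five concentrations for 48 hours. Endpoints are linearly interpolated between the surrounding concentrations. At the GI50, growth is halved.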 Active and inactive are the calls of the source. Rule as the data show it: active = GI50 up to about 1.1 µM and inactive = higher. Numbered stars: 1 amine (or outer) side, 2 acyl side, 3 side chain; on linkers, the order of the positions; unused ones are H or OH. Bridge positions count the residues as written; N and C are the ends. Square brackets hold non-standard residues; d marks the D form. Peptide text beside a SMILES is read from it. * marks the point of attachment. X52 = CC(C)C(C)C(C(=O)[*:2])N(C)[*:1]; Picolinoyl(3-OH) = O=C(c1ncccc1O)*; NMePhg = CN[CH](C(=O)O)c1ccccc1; Hyp = O=C(O)[CH]1C[CH](O)CN1; Sar = CNCC(=O)O

tested on: NCI-H322M; test: NCI tumour cell line growth inhibition, 48 h

SMILES	GI50
CC[C@@H]1CN2CCC1C[C@@H]2C(O)c1ccnc2ccc(OCCN3CCN(CCOc4ccc5nccc(C(O)[C@@H]6C[C@@H]7CCN6C[C@@H]7CC)c5c4)CC3)cc12 (some centres undefined)	inactive: 14.1 µM
CC(=O)NC1C(OCc2ccccc2)OC(COC(=O)CCCCCCCCCCNC(=O)c2cccc3c(=O)c4ccccc4[nH]c23)C(O)C1OC(C)C(=O)NC(C)C(=O)NC(CCC(N)=O)C(N)=O (centres undefined)	inactive: > 100 µM
CCOc1ccc(C2c3[nH]c4ccccc4c3CCN2C(=O)c2cccs2)cc1 (centres undefined)	inactive: 15.1 µM
CCOC(=O)c1sc2nc(-c3ccccc3)nn2c1CBr	inactive: 2.62 µM
CC1=C(C(=O)Nc2ccc(Cl)c(Cl)c2)C(c2ccc([N+](=O)[O-])cc2)C(C(=O)Nc2ccc(Cl)c(Cl)c2)=C(C)N1	inactive: 4.27 µM
CC(O)(Cc1ccccc1C#N)Cc1ccccc1C#N	inactive: > 100 µM
CCCCCCCC(=O)O[C@H]1[C@H]2[C@@H](CC1(C)C)C(=O)[C@]13O[C@H]1C(=O)[C@]1(CO1)[C@]23C	inactive: 16.9 µM
CC1(C)OC(=O)N(c2ccccc2)C12C=Cc1cccc([N+](=O)[O-])c1O2 (centres undefined)	inactive: > 100 µM
O=[N+]([O-])c1ccc2c(c1)C(N1CCN(CCO)CC1)Cc1ccc(F)cc1S2 (centres undefined)	inactive: 12.3 µM
O=C(N/N=C1\C(=O)N(c2nccs2)C(=O)C(=O)C1c1nc2ccccc2s1)c1ccccc1O (centres undefined)	inactive: 36.8 µM
COc1ccc(Nc2n[nH]c(NS(=O)(=O)c3cc(C)c(Cl)cc3S)n2)cc1	inactive: > 100 µM
CSC1NNC2(C(=O)N1)c1ccccc1-c1ccccc12 (centres undefined)	inactive: > 10 µM
O=C1SC(c2ccccc2)(c2ccccc2)c2ccccc21	inactive: > 100 µM
Cc1cc2cccc(Cl)c2nc1C(=O)c1ccccc1	inactive: > 100 µM
COC(=O)C1=CC[C@@H]2C(C(=O)O)=CO[C@@H](OC3OC(CO)C(O)C(O)C3O)[C@H]12 (some centres undefined)	inactive: > 155 µM
CC1(C)C2CCC1C(=O)[C@@]1(C=CC(=O)CC1)C2 (some centres undefined)	inactive: 85.5 µM
CC(=O)CC(=O)CCCC(=O)Nc1ccc(Cl)cc1Cl	inactive: > 100 µM
Cc1cc(C)c2c(c1C)CN1CN2Cc2c(C)c(C)cc(C)c21	inactive: > 100 µM
CCCCCCCCSC(=O)NCCCC	inactive: > 100 µM
Oc1ccc(I)c2cccnc12	inactive: 7.71 µM

SMILES	GI50
COc1cc2ccc1-c1cc(ccc1O)CC1c3cc4c(cc3CCN1C)Oc1c(OC)cc3c(c1O4)C(C2)N(C)CC3 (centres undefined)	inactive: 1.89 µM
CN(CCO)c1nc2c(c(=O)[nH]1)CNCC2	inactive: > 100 µM
COc1ccc(N2C(=O)C3c4[nH]c5ccc(OC)cc5c4C4CCC(C(C)(C)C)CC4C3C2=O)cc1 (centres undefined)	inactive: 32.1 µM
CCCCCc1c2nc(c(CCCCC)c3ccc([nH]3)c(CCCCC)c3nc(c(CCCCC)c4ccc1[nH]4)C=C3)C=C2	inactive: > 100 µM
CN(C)c1n/c(=N/Cc2ccccn2)ss1	inactive: > 10 µM
COc1cccc2c1C(=O)c1c(O)c3c(c(O)c1C2=O)CC(O)(C(=O)CO)CC3OC1CC(N2CCOCC2C#N)C(O)C(C)O1 (centres undefined)	active: > 0.01 µM
CCOCC(=O)N(C)c1cccc2c3c(n(C)c12)CCCCC3	inactive: > 100 µM
Cc1c(C#N)c(N)[nH]c(=S)c1C#N	inactive: > 100 µM
O=C1c2cccnc2S(=O)(=O)N1c1ccc([N+](=O)[O-])cc1	inactive: > 100 µM
O=C1/C(=C/c2ccco2)N=C2Sc3c([nH]cnc3=O)N12	inactive: > 100 µM
CC(=O)NC(CCCOC(C)=O)C(=O)NC(CCCOC(C)=O)C(=O)NC(CCCOC(C)=O)C(=O)NC(Cc1ccc([N+](=O)[O-])cc1)C(=O)NCC(=O)OCc1ccccc1 (centres undefined)	inactive: > 100 µM
CCC1(O)CC(CCN(Cc2ccccc2)C(=O)OCc2ccccc2)C(OCc2ccccc2)C1O (centres undefined)	inactive: 17.8 µM
CC(C)(C)OC(=O)c1ccc(NCC2=C(Br)C(=O)C=CC2=O)cc1	inactive: > 100 µM
OCC1CCCC(n2cnc3c(S)ncnc32)O1 (centres undefined)	inactive: > 100 µM
C=CNC(=O)NC(=O)CSc1nc(=O)c(-c2ccccc2NC(=O)C(F)(F)F)n[nH]1	inactive: > 100 µM
O=C(c1c(F)c(F)c(F)c(F)c1F)N1CCN(C(=O)c2c(F)c(F)c(F)c(F)c2F)C1=S	inactive: 16.3 µM
CCCCCC(=O)N[C@H]1CCc2cc(O)c(O)c(O)c2-c2ccc(SC)c(=O)cc21	inactive: > 58.5 µM
N#CC(NNC(=O)c1ccccc1O)c1ccccc1 (centres undefined)	inactive: 5.21 µM
On1c(-c2ccccc2)c(-c2c(-c3ccccc3)n(O)c3ccccc23)c2ccccc21	inactive: 30.6 µM
Nc1nc(O)c2c(n1)NCN(CCCN1CCOCC1)C2	inactive: > 100 µM

SMILES	GI50
COc1cccc(-c2nc(-c3cnccn3)n(C3OC(CO)C(O)C3O)n2)c1 (centres undefined)	inactive: > 100 µM
CCOC(=O)NC(=O)c1cn(C(CC)COC(=O)NCCCCCCNC(=O)OCC(CC)n2cc(C(=O)NC(=O)OCC)c(=O)[nH]c2=O)c(=O)[nH]c1=O (centres undefined)	inactive: > 100 µM
Nc1nc(-c2ccccc2)cc(-c2ccccc2O)n1	inactive: 7.83 µM
CC(C)CC1NC(=O)C(NC(=O)c2ncccc2O)C(C)OC(=O)C(c2ccccc2)N(C)C(=O)C(C)NC(=O)C(C(C)C(C)C)N(C)C(=O)CN(C)C(=O)C2CC(O)CN2C1=O (centres undefined) ({Picolinoyl(3-OH)}-TL[Hyp][Sar][X52]A[NMePhg]; ester 1-C; configuration not given here)	inactive: 68.5 µM
O=C(O)CCC(NC(=O)c1ccc(Nc2nc3ccc(C(F)(F)F)cc3nc2C(=O)O)cc1)C(=O)O (centres undefined)	inactive: 48.3 µM
O=C(O[C@H]1[C@@H]2C=CO[C@@H](OC3OC(CO)C(O)C(O)C3O)[C@@H]2[C@@]2(CO)O[C@@H]12)c1ccc(O)c(O)c1 (some centres undefined)	inactive: > 100 µM
Cc1ccc(/C=N/NC2=NCCN2)s1	inactive: > 100 µM
Cc1nc(=O)c2cc(CN(C)c3ccc(C(=O)N[C@@H](CCC(=O)O)C(=O)O)s3)ccc2[nH]1 [RALTITREXED]	inactive: > 100 µM
Cc1c(N2C(=O)/C(=C/c3ccc(N(CCC#N)CCC#N)cc3)N=C2c2ccccc2)c(=O)n(-c2ccccc2)n1C	inactive: > 100 µM
COc1cc2ccc3c4cc(OC)c(OC)cc4c[n+](C)c3c2cc1O	inactive: > 100 µM
O=P1(C(O)/C=C/c2ccccc2)N(Cc2ccccc2)[C@H](c2ccccc2)[C@@H](c2ccccc2)N1Cc1ccccc1 (some centres undefined)	inactive: 23.3 µM
CCOC(=O)C1=C(C)N(C)C23OC4(C(=O)OC)CC2c2ccccc2C1N3C4=O (centres undefined)	inactive: 67.6 µM
COc1ccc(/C=C2/C(=O)N(/C=C3\C(=O)Oc4ccccc4C3=O)/C(=N/C(C)=O)N2C)cc1OC	inactive: > 100 µM
COC(=O)/C(=N\NC(=O)c1ccccc1O)C(C#N)c1ccccc1 (centres undefined)	inactive: 23.7 µM
CCc1ccccc1NC(=O)C(=O)C(C(=O)c1ccc(OC)cc1)c1ccc(OC)cc1 (centres undefined)	inactive: > 100 µM
O=C1CC(=O)n2cnc3cccc(c32)N1	inactive: > 100 µM
Cc1cn([C@@H]2C[C@](C)(CO)N(C)O2)c(=O)[nH]c1=O	inactive: > 100 µM
Oc1cc(O)c2ccc(-c3ccc(O)c(O)c3)[o+]c2c1	inactive: > 100 µM
COc1cc([N+](=O)[O-])ccc1NC(=O)C(F)(F)F	inactive: > 100 µM
